A lower IC50 marks a more sensitive line; fits outside the tested doses are given as limits. AUC, from the same fit, is the share of area under the viability curve across the 256-fold dose range: 1 means no effect, lower means more sensitive. The top dose, if marked as inferred, was derived from the fitted curves, not read from the paper.
How the values were obtained:
Experiment in all cases: Viability of human cancer cell lines after 72 h of drug (GDSC screen)
CAY10603 = compound: CC(C)(C)OC(=O)Nc1ccc(-c2cc(C(=O)NCCCCCCC(=O)NO)no2)cc1 [CAY10603]; conditions: top dose 20 µM; top dose inferred
Description: (§1)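 Human cancer cell lines in 384-well plates, medium with 10% serum, drug for 72 h over a 256-fold dose range (nine 2-fold or five 4-fold steps up to the top dose). Adherent lines were fixed and stained with the nucleic acid dye Syto60, suspension lines read with resazurin; signal relative to control wells, capped at 0 and 100%. One two-parameter sigmoid per drug and line, fitted in a mixed model over all curves with the slope shared within a line.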

ACHP (KIN001-260) = compound: N#Cc1c(C2CCNCC2)cc(-c2c(O)cccc2OCC2CC2)nc1N [ACHP (KIN001-260)]; conditions: top dose 20 µM; top dose inferred
Description: as §1

CH5424802 = compound: CCc1cc2c(cc1N1CCC(N3CCOCC3)CC1)C(C)(C)c1[nH]c3cc(C#N)ccc3c1C2=O [CH5424802]; conditions: top dose 5.12 µM; top dose inferred
Description: as §1

XMD8-92 = compound: CCOc1cc(N2CCC(O)CC2)ccc1Nc1ncc2c(n1)N(C)c1ccccc1C(=O)N2C [XMD8-92]; conditions: top dose 10 µM; top dose inferred
Description: as §1

Cell Line	AUC (CAY10603)	IC50 (CAY10603) [µM]	AUC (ACHP (KIN001-260))	IC50 (ACHP (KIN001-260)) [µM]	AUC (CH5424802)	IC50 (CH5424802) [µM]	AUC (XMD8-92)	IC50 (XMD8-92) [µM]
EW-24 (Ewing sarcoma, semi-adherent)	0.836	11.1	0.989	> 20	0.993	> 5.12	0.926	> 10
CaR-1 (large intestine, adherent)	0.655	4.21	0.978	> 20	0.975	> 5.12	0.816	9.61
SJSA-1 (bone, adherent)	0.592	2.31	0.969	> 20	0.979	> 5.12	0.865	> 10
NCI-H1915 (large cell lung carcinoma, adherent)	0.357	0.498	0.943	> 20	0.982	> 5.12	0.968	> 10
SK-MES-1 (lung squamous cell carcinoma, adherent)	0.517	1.39	0.982	> 20	0.709	1.32	0.941	> 10
JHOS-3 (ovary, adherent)	0.884	> 20	0.979	> 20	0.957	> 5.12	0.962	> 10
NCI-H1395 (lung adenocarcinoma, adherent)	0.675	4.53	0.973	> 20	0.948	> 5.12	0.97	> 10
LoVo (large intestine, adherent)	0.738	6.02	0.971	> 20	0.987	> 5.12	0.904	> 10
SW684 (fibrosarcoma, adherent)	0.967	> 20	0.983	> 20	0.981	> 5.12	0.928	> 10
BHT-101 (thyroid, adherent)	0.433	0.813	0.976	> 20	0.971	> 5.12	0.786	4.45
TE-8 (oesophagus, adherent)	0.985	> 20	0.969	> 20	0.984	> 5.12	0.93	> 10
HT-1197 (bladder, adherent)	0.612	2.7	0.985	> 20	0.983	> 5.12	0.894	> 10
H9 (lymphoid neoplasm, suspension)	0.992	> 20	0.927	> 20	0.988	> 5.12	0.799	3.84
DND-41 (T-cell leukaemia, suspension)	0.234	0.238	0.755	6.07	0.985	> 5.12	0.885	8.66
NCI-H1876 (small cell lung carcinoma, adherent)	0.601	2.37	0.957	> 20	0.98	> 5.12	0.95	> 10
SCC-15 (head and neck, adherent)	0.62	2.99	0.962	> 20	0.975	> 5.12	0.873	> 10
TMK-1 (stomach, adherent)	0.812	11.5	0.949	> 20	0.986	> 5.12	0.925	> 10
SF295 (glioma, adherent)	0.582	2.14	0.985	> 20	0.984	> 5.12	0.924	> 10
SW1573 (lung adenocarcinoma, adherent)	0.719	6.54	0.979	> 20	0.975	> 5.12	0.912	> 10
SK-GT-4 (oesophagus, adherent)	0.421	0.721	0.977	> 20	0.954	> 5.12	0.858	> 10
NCI-H1694 (small cell lung carcinoma, suspension)	0.541	1.62	0.973	> 20	0.905	> 5.12	0.947	> 10
KU-19-19 (bladder, adherent)	0.604	2.41	0.987	> 20	0.987	> 5.12	0.795	4.65
CGTH-W-1 (thyroid, adherent)	0.675	3.84	0.982	> 20	0.986	> 5.12	0.89	> 10
HCC1569 (breast, adherent)	0.651	3.79	0.964	> 20	0.962	> 5.12	0.941	> 10

Reference: the supplement of paper PMC4967469
